Experimental data reported in paper PMC6919601, “Identification of Plasmodium dipeptidyl aminopeptidase allosteric inhibitors by high throughput screening” (PLoS ONE, 2019).
Several values for one entry are separate records, joined by “and”; a condition that tells them apart may be missing. Equal values may be shown once. The whole screen tested about 110,000 compounds, of which about 230 (0.21%) showed an effect of 50% or more. The list shows a part of the results.

These compounds were tested against DPAP1 (Plasmodium falciparum, UniProt Q8IIJ9) (assay: primary screen, percent inhibition; read by cleavage of a fluorogenic dipeptide substrate; higher = more effect of the substance).
Design: species or system P. falciparum D10 trophozoite lysates; single well
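Also: 30 min substrate incubation versus DMSO and 10 µM JCP410 controls.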

Sequence of DPAP1 (Q8IIJ9 whole entry, looked up): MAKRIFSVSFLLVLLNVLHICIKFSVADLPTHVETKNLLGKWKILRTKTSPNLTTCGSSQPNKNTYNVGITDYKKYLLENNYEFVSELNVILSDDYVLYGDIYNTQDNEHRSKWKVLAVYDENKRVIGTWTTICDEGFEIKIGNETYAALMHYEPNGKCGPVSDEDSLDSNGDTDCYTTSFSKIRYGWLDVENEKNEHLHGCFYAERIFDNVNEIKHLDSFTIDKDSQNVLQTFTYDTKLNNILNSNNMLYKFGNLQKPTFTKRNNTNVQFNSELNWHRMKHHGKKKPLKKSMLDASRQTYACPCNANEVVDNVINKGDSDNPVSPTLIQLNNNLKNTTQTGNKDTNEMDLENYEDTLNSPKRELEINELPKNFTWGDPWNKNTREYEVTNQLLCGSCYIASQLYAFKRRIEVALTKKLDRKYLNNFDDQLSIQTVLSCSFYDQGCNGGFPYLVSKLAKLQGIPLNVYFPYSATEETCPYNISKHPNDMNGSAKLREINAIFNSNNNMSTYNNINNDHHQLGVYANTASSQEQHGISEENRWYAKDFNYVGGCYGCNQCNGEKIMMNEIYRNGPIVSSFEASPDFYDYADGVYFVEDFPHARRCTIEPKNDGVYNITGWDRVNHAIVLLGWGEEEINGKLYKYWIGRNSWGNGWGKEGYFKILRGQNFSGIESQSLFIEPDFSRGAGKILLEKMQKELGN

SMILES	% Inhibition @ 10 uM
OCC1CCCN(Cc2c(Cl)cccc2Cl)C1 (stereo not drawn)	-3.27%
CSc1nc(C)cc(-n2ccc(=O)[nH]c2=O)n1	1.84%
CCOc1ccc(S(=O)(=O)Nc2ccc(CC#N)cc2)cc1	0.214%
Cn1c(C(=O)O)c(CNCc2cccc(Cl)c2)c2ccccc21	-4.33%
Cn1c(=O)c2c(-c3ccc(Cl)cc3)n(CC(=O)O)cc2n(C)c1=O	-3.12%
Cc1nn(C(C)C(=O)N2CCN(C3CCCCC3)CC2)c(=O)c2c1sc1ccccc12 (stereo not drawn)	-0.856%
N=C1S/C(=C/c2ccc(-c3cccc(C(=O)O)c3)o2)C(=O)N1c1nccs1	-3.45%
CCOC(=O)c1[nH]c(C)c(C(=O)NCCCOC(C)C)c1C	-1.66%
COc1ccc(-c2nc(NC(=O)c3cccnc3)sc2C)cc1	3.15%
CCOc1ccc(NC(=O)c2ccc(Cl)cc2)cc1	-5.41%
O=C(C1CC(c2ccc(F)cc2)=NO1)N1CCCCC1 (stereo not drawn)	-2.16%
CC(C)Oc1ccc(N2CC(C(=O)Nc3ccccc3C(F)(F)F)CC2=O)cc1 (stereo not drawn)	-7.33%
CCc1c(C)c2ccc3c(c2oc1=O)CN(C(C)(C)C)CO3	-1.08%
N#C/C(=C/c1ccc(-c2ccc(Cl)cc2)o1)C(=O)O	0.00784%
COc1ccc(-n2c(C)c([N+](=O)[O-])c3ccc(O)cc32)cc1	-1.59%
COc1ccc(-c2c(C)nn(-c3ccccc3)c2/N=C/N2CCOCC2)cc1OC	-6.17%
Cc1cc(NC(=O)CSc2nc3ccccc3c3nc(CCn4c(C)nc5ccccc54)nn23)[nH]n1	-2.74%
Fc1cccc(Cl)c1CSc1nnc(-c2ccccc2)o1	6.11%
COc1cc2c(cc1OC)C(C#N)=NC(C)(C)C2	-2.03%
COc1ccccc1C(=O)Nc1c(C(=O)NCc2ccco2)sc2nc(C)cc(C)c12	-1.24%
Cc1nc(O)c(C(=O)/C=C/c2ccccc2Cl)c2c1CCCC2	1.83%
COc1ccc(-c2nn(C)c3sc(C(=O)NCCCOC(C)C)cc23)cc1OC	1.23%
CN1CCCN(Cc2ccc(Br)o2)CC1	-1.07%
CN(C)CCN(C)Cc1ccc(F)cc1	3.53%
COc1ccc(-c2noc(CN3CCC(Cc4ccccc4)CC3)n2)cc1	-3.68%
COc1ccc(OCC(=O)Nc2ccc(S(=O)(=O)N3CCOCC3)cc2)cc1	2.01%

SMILES	% Inhibition @ 10 uM
COC(F)(C(=O)Nc1sc2c(c1C#N)CCCC2)C(F)(F)F (stereo not drawn)	3.19%
CCSc1nnc(NC(=O)C2CC3CCC2C3)s1 (stereo not drawn)	-3.74%
CCOc1ccc(C2=NN(c3cccc(F)c3)C(c3ccccc3F)C2)cc1 (stereo not drawn)	-0.239%
COCCn1c(C)cc(C(=O)C(=O)Nc2nnc(-c3ccco3)s2)c1C	-8.56%
Cc1nn(CCCC(=O)NC2CCC(C)CC2)c(=O)c2nn(-c3ccccc3)c(C)c12 (stereo not drawn)	2.48%
CCn1c(Cn2nnc(-c3ccccc3)n2)nnc1SCC(=O)N1CCOCC1	-2.19%
CC(C)CCNC(=O)COc1ccc(Cl)cc1Cl	3.65%
O=C(COc1ccc(Br)cc1)Nc1ccc2c(c1)C(=O)NC2=O	-7.53%
O=C(c1nn2c(C(F)(F)F)cc(-c3ccccc3)nc2c1Cl)N1CCN(C(c2ccccc2)c2ccccc2)CC1	-5.28%
CCCCCCC(NC(=O)OCc1ccccc1)C(=O)NCC#N (stereo not drawn)	-6.98%
Cc1cc(Cl)cc(Cl)c1OCC(=O)Nc1ccc(N2CCOCC2)cc1	-0.478%
Cc1cc(C)nc(NS(=O)(=O)c2ccc(NC(=O)c3ccccc3C)cc2)n1	-1.65%
CCN(CC)C(=O)Cn1cc(SCC(=O)Nc2cc(C)on2)c2ccccc21	-3.13%
Cc1ccc(S(=O)(=O)CCC#N)cc1C	1.43%
O=S(=O)(c1ccccc1)N1CCN(c2ccccc2)CC1	5.09%
COc1ccc(-c2cc(-c3ccccc3)nc(N)c2C#N)cc1	4.51%
CCOc1ccccc1-c1cc(C(=O)O)c2cc(Br)ccc2n1	-2.9%
COc1ccc2oc(=O)cc(CN3CCCCCC3)c2c1	4.83%
Cc1nc2cccnc2n1-c1ccc(C(=O)N2CCC(Cc3ccccc3)CC2)cc1	-1.75%
CC(C)Oc1ccccc1NC(=O)c1cc(F)c(F)cc1Cl	1.64%
CCCCN(Cc1ccccc1)C(=O)C1CCCN(S(=O)(=O)c2c[nH]cn2)C1 (stereo not drawn)	1.26%
NC(=O)c1ccc(NC(=O)CNS(=O)(=O)c2cc(Cl)ccc2Cl)cc1	-2.83%
CCCCCC1CCC(c2ccc(-c3noc(-c4ccc(C5CCC(CCCCC)CC5)cc4)n3)cc2)CC1 (stereo not drawn)	0.98%
CN1CCN(C(=O)N2c3ccccc3C=Cc3ccccc32)CC1	-2.42% and 1.57%
CCc1ccc(CN(C(=O)c2ccc(OC(C)C)cc2)C2CCS(=O)(=O)C2)cc1 (stereo not drawn)	0.413%
